In PubChem BioAssay (Tox21):
The shares of active, inactive and inconclusive entries below differ from those in the screen. For some of these results: Potencies beside an inconclusive call are fits to weak or partial responses and may not hold up. Activity calls are given as the source filed them. Unless noted, calls come from the whole dose curve; as a rule, active = well fitted curve in the direction sought with a large enough effect in the repeat runs; inconclusive = weak or mixed curves; inactive = no such curve, though single readings can be large; an effect the other way counts as inactive or inconclusive. Bridge positions count the residues as written; N and C are the ends. Square brackets hold non-standard residues; d marks the D form. Peptide text beside a SMILES is read from it. * marks the point of attachment. X3 = CC[C@@H](C)[C@@H](N)C1=N[C@H](C(=O)*)CS1; d(aIle) = CC[C@H](C)[C@@H](N)C(=O)O; dOrn = NCCC[C@@H](N)C(=O)O

Assays:
[1] = qHTS assay for small molecule agonists of the p53 signaling pathway (AID 651631; calls by dose curve; note: nearly all actives have a fitted effect of over 15% in size; note: potency is the fitted concentration of half-maximal effect); conditions: HCT-116 p53RE-bla reporter, beta-lactamase FRET ratio, 16 h; activation: at 73.3 µM (top of the series) unless noted
In short: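 Beta-lactamase reporter activity under p53 response elements was quantified in HCT-116 cells by FRET fluorescence, following 16 h incubation with test compounds at 37 °C and 2 h substrate development at room temperature.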

[2] = qHTS assay for small molecule disruptors of the mitochondrial membrane potential (AID 720635); conditions: HepG2 mitochondrial membrane potential, Mito-MPS dye ratio; note: potency is the fitted concentration of half-maximal effect
In short: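 HepG2 cells exposed to compound 1 hr at 37C, then Mito-MPS dye 30 min. Ratio read of aggregate (540/590 nm) versus monomer (490/535 nm) fluorescence.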

[3] = molecular target: Glucocorticoid receptor (Homo sapiens) (UniProt P04150); experiment: qHTS assay to identify small molecule agonists of the glucocorticoid receptor (GR) signaling pathway (AID 720691; active = well fitted activation curve with a large enough effect in the signal ratio in the repeat runs, not every such curve was filed as active; inconclusive = weak or mixed curves, or effect the other way; inactive = no such curve, though single readings can be large or run the other way; the % refers to the signal ratio; note: potency is the fitted concentration of half-maximal effect); conditions: GR-bla HeLa, beta-lactamase reporter ratio, 18 h; activation: at 62.4 µM (top of the series) unless noted
Sequence of UniProt P04150 (P04150 whole entry, looked up): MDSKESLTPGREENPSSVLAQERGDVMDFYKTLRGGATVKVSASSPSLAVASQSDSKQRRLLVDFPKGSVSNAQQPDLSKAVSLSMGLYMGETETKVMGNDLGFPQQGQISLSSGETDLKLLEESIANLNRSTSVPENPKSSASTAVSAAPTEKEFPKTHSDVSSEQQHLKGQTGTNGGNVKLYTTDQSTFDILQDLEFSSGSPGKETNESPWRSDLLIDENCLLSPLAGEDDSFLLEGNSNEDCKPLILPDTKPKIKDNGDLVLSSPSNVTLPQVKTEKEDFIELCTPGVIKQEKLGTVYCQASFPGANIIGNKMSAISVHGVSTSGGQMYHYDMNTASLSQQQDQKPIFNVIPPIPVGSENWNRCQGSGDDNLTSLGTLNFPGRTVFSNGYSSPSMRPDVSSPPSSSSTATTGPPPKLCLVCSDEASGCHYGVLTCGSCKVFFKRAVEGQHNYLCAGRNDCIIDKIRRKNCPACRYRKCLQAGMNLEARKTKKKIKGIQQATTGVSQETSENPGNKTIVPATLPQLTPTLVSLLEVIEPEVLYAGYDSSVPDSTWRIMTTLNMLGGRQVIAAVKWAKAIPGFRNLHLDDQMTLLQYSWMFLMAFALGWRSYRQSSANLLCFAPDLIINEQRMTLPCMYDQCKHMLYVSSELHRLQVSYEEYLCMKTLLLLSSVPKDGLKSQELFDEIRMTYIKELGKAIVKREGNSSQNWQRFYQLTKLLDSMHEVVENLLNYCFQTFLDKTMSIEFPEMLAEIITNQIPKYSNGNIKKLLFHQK
In short: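 GR-bla HeLa cells (beta-lactamase reporter under glucocorticoid response element) were plated 4 h at 37 C/5% CO2, given compounds in DMSO, and incubated 18 h at 37 C. LiveBLAzer B/G FRET substrate was added for 2 h at room temperature, then fluorescence intensity read.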

[4] = molecular target: Glucocorticoid receptor (Homo sapiens) (UniProt P04150); experiment: qHTS assay to identify small molecule antagonists of the glucocorticoid receptor (GR) signaling pathway (AID 720692; active = well fitted inhibition curve with a large enough effect in the signal ratio in the repeat runs, not every such curve was filed as active; inconclusive = weak or mixed curves, or effect the other way; inactive = no such curve, though single readings can be large or run the other way; the % refers to the signal ratio; note: potency is the fitted concentration of half-maximal effect); conditions: GR-bla HeLa, beta-lactamase FRET ratio, dexamethasone-stimulated, 18 h; activity change, negative = inhibition: at 58.5 µM (top of the series) unless noted
In short: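 GR-bla HeLa cells (beta-lactamase reporter under glucocorticoid response element) were pre-plated 4 h at 37 C, treated with compounds plus 5 nM dexamethasone (final) for 18 h, then read by LiveBLAzer B/G FRET fluorescence after 2 h.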

[5] = qHTS assay to identify small molecule antagonists of the glucocorticoid receptor (GR) signaling pathway - cell viability counter screen (AID 720693); conditions: GR-bla HeLa viability, CellTiter-Glo luminescence, 18 h, with 5 nM dexamethasone present; viability change, negative = cytotoxic: at 58.5 µM (top of the series); note: potency is the fitted concentration of half-maximal effect; nearly all actives have a fitted effect of over 55% in size
[6] = qHTS assay for identifying genotoxic compounds that show differential cytotoxicity against isogenic chicken DT40 cell lines with known DNA damage response pathways - Rev3 mutant cell line (AID 743014); conditions: chicken DT40 Rev3-/- viability, CellTiter-Glo, 40 h; activity, negative = cytotoxicity: at 68.4 µM (top of the series) unless noted; note: nearly all actives have a fitted effect of over 55% in size; note: potency is the fitted concentration of half-maximal effect
[7] = qHTS assay to identify small molecule antagonists of the thyroid receptor (TR) signaling pathway - cell viability counter screen (AID 743064); conditions: GH3.TRE-Luc viability, CellTiter-Fluor, 24 h; activity change, negative = cytotoxic: at 70.3 µM (top of the series) unless noted; note: potency is the fitted concentration of half-maximal effect; nearly all actives have a fitted effect of over 50% in size
In short: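 CellTiter-Fluor readout, 30 min at 37 °C/5% CO2, following 23.5 h incubation of GH3.TRE-Luc cells with test compound and 1 nM T3 (final).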

[8] = test system: thyroid hormone receptor (rat, GH3 cells); experiment: qHTS assay to identify small molecule agonists of the thyroid receptor (TR) signaling pathway (AID 743066; calls by dose curve; note: potency is the fitted concentration of half-maximal effect; for activation: % is set by controls: 0 for no effect and ±100 for the full control effect); conditions: GH3.TRE-Luc cells, TR agonist luciferase, 24 h; activation: at 83.9 µM (top of the series) unless noted
[9] = molecular target: Estrogen receptor (Homo sapiens) (UniProt P03372); experiment: qHTS assay to identify small molecule antagonists of the estrogen receptor alpha (ER-alpha) signaling pathway (AID 743069; active = well fitted curve in the direction sought with a large enough effect in the signal ratio in the repeat runs, not every such curve was filed as active; inconclusive = weak or mixed curves, or effect the other way; inactive = no such curve, though single readings can be large or run the other way; the % refers to the signal ratio; note: potency is the fitted concentration of half-maximal effect); conditions: HEK293 ER-alpha-UAS-bla, beta-lactamase ratio, antagonist mode; activity, negative = inhibition: at 69.4 µM (top of the series) unless noted
Sequence of UniProt P03372 (P03372 whole entry, looked up): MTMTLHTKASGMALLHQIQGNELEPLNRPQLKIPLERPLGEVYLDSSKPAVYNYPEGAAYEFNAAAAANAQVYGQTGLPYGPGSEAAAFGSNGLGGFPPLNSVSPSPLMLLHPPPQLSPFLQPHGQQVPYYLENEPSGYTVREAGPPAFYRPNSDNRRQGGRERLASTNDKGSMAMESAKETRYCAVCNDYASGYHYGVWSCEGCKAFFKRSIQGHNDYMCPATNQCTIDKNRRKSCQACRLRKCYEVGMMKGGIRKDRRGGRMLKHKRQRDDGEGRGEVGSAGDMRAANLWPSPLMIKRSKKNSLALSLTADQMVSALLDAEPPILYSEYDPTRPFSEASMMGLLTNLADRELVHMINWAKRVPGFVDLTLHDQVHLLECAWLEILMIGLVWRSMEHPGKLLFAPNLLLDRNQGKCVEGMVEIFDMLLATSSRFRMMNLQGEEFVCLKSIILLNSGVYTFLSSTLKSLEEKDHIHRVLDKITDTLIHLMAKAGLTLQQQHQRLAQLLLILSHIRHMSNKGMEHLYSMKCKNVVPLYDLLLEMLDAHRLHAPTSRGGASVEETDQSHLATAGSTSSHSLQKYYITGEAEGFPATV
In short: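 Reporter cells (ER-alpha-bla, HEK293 background) are conditioned overnight in stripped-serum medium (2% charcoal-stripped FBS). Compound and 17beta-estradiol exposure runs 18 hr at 37C, 5% CO2.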

[10] = qHTS assay to identify small molecule antagonists of the estrogen receptor alpha (ER-alpha) signaling pathway - cell viability counter screen (AID 743074; calls by dose curve;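 note: HEK293 cells carrying ER-alpha-UAS-bla reporter stimulated with 17beta-estradiol; nearly all actives have a fitted effect of over 45% in size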; note: potency is the fitted concentration of half-maximal effect; for activity, negative = cytotoxicity: % is set by controls: 0 for no effect and ±100 for the full control effect)
[11] = molecular target: Estrogen receptor (Homo sapiens) (UniProt P03372); experiment: qHTS assay to identify small molecule agonists of the estrogen receptor alpha (ER-alpha) signaling pathway using the BG1 cell line (AID 743079); conditions: BG1Luc4E2 cells, ERE-luciferase agonist, 22 h; activation: at 70.3 µM (top of the series) unless noted; note: nearly all actives have a fitted effect of over 20% in size; note: potency is the fitted concentration of half-maximal effect
[12] = qHTS assay to identify small molecule antagonists of the estrogen receptor alpha (ER-alpha) signaling pathway using the BG1 cell line (AID 743080; calls by dose curve;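 note: BG1 cells stimulated with 17beta-estradiol alongside compound; potency is the fitted concentration of half-maximal effect; nearly all actives have a fitted effect of over 25% in size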); conditions: BG1Luc4E2 ERE-luciferase antagonist mode, luminescence; activity change, negative = inhibition: at 70.3 µM (top of the series) unless noted
In short: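 BG1-Luc-4E2 cells (endogenous full-length ER-alpha, 4xERE luciferase) hormone-starved 5 days in charcoal-stripped FBS, plated 4,000/well for 24 h, then compound plus 17beta-estradiol for 21.5 h at 37 C; ONE-Glo luminescence read.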

[13] = qHTS assay to identify small molecule antagonists of the estrogen receptor alpha (ER-alpha) signaling pathway using the BG1 cell line - cell viability counter screen (AID 743081); conditions: BG1Luc4E2 viability, CellTiter-Fluor, 22 h; activity change, negative = cytotoxicity: at 70.3 µM (top of the series) unless noted;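 note: compound given together with 17beta-estradiol as the ER stimulus; potency is the fitted concentration of half-maximal effect; nearly all actives have a fitted effect of over 45% in size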
[14] = molecular target: Nuclear receptor subfamily 1 group I member 2 (Homo sapiens) (UniProt O75469); experiment: Human pregnane X receptor (PXR) activation by small molecules, qHTS assay (AID 1346985); note: nearly all actives have a fitted effect of over 40% in size; note: potency is the fitted concentration of half-maximal effect; for activation: % is set by controls: 0 for no effect and ±100 for the full control effect
In short: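 DPX-2 cells (HepG2 co-transfected with a PXR response element and a CYP3A4-promoter luciferase construct) were seeded at 2,000 per well, rested 5 hr at 37C, then exposed to DMSO-dissolved compounds for 24 hr. Activation was read as luciferase luminescence.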

[15] = qHTS assay for identifying genotoxic compounds that show differential cytotoxicity against isogenic chicken DT40 cell lines with known DNA damage response pathways - Rad54/Ku70 mutant cell line (AID 743015); conditions: DT40 Rad54/Ku70 mutant viability, CellTiter-Glo, 40 h; activity change, negative = cytotoxicity: at 66.8 µM (top of the series) unless noted; note: potency is the fitted concentration of half-maximal effect; nearly all actives have a fitted effect of over 60% in size
[16] = qHTS assay to identify small molecule antagonists of the androgen receptor (AR) signaling pathway - cell viability counter screen (AID 743033; note: nearly all actives have a fitted effect of over 45% in size; note: potency is the fitted concentration of half-maximal effect; for activity change, negative = cytotoxicity: % is set by controls: 0 for no effect and ±100 for the full control effect); conditions: AR-bla HEK293 viability, CellTiter-Glo luminescence, 16 h; activity change, negative = cytotoxicity: at 58.5 µM (top of the series) unless noted
[17] = qHTS assay to identify small molecule antagonists of the androgen receptor (AR) signaling pathway using the MDA cell line - cell viability counter screen (AID 743041; note: nearly all actives have a fitted effect of over 45% in size; note: potency is the fitted concentration of half-maximal effect); conditions: MDA-kb2 viability, CellTiter-Fluor, 16 h, cells co-treated with R1881 androgen agonist; viability change, negative = cytotoxic: at 70.3 µM (top of the series)
In short: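 Same-well cytotoxicity was assessed by CellTiter-Fluor in MDA-kb2 AR-luc cells after 16 h of compound treatment under R1881 agonism.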

[18] = qHTS assay to identify aromatase inhibitors - cell viability counter screen (AID 743084); conditions: MCF-7 aro ERE viability, CellTiter-Fluor, 24 h; activity change, negative = cytotoxicity: at 70.3 µM (top of the series) unless noted;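 note: cells stimulated with testosterone during compound exposure; % is set by controls: 0 for no effect and ±100 for the full control effect; nearly all actives have a fitted effect of over 55% in size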
[19] = molecular target: Peroxisome proliferator-activated receptor gamma (Homo sapiens) (UniProt P37231); experiment: qHTS assay to identify small molecule agonists of the peroxisome proliferator-activated receptor gamma (PPARg) signaling pathway (AID 743094; active = well fitted activation curve with a large enough effect in the signal ratio in the repeat runs, not every such curve was filed as active; inconclusive = weak or mixed curves, or effect the other way; inactive = no such curve, though single readings can be large or run the other way; the % refers to the signal ratio; note: potency is the fitted concentration of half-maximal effect); conditions: HEK293H PPARg-UAS-bla, beta-lactamase FRET ratio, 17 h; activation: at 57 µM (top of the series) unless noted
Sequence of UniProt P37231 (P37231 whole entry, looked up): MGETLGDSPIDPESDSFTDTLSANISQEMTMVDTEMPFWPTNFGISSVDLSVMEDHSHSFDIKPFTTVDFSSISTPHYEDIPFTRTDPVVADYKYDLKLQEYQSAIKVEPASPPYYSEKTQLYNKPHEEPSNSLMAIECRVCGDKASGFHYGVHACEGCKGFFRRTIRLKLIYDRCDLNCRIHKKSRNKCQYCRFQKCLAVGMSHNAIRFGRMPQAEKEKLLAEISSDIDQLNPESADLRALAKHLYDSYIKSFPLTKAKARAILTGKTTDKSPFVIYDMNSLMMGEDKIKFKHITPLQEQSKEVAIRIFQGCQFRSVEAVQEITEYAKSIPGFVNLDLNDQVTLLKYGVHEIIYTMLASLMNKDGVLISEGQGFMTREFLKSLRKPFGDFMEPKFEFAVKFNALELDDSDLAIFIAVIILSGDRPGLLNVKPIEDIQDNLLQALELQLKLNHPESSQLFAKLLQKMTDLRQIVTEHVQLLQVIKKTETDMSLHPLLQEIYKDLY
In short: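 GeneBLAzer PPARg UAS-bla HEK293H cells carrying a stably integrated beta-lactamase reporter were pre-incubated 5 h at 37C, then exposed to compounds in DMSO for 17 h at 37C; LiveBLAzer B/G FRET substrate was added for 1 h at room temperature and fluorescence read.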

[20] = ratio activity, negative = MMP loss: at 83.2 µM (top of the series) unless noted
Tags give direction and shape of the fitted curve or compound fluorescence and quenching.

## CSc1nc2cc(Oc3cccc(Cl)c3Cl)c(Cl)cc2[nH]1
[1]
  Potency: inconclusive: 10.6 µM [cytotoxic, full curve]
[2]; [20]
  Potency: active: 1.68 µM
[3]
  Potency: inconclusive: 6.74 µM [cytotoxic, full curve]
[4]
  Potency: inconclusive: 16.9 µM [cytotoxic, partial curve]
[5]
  Potency: active: 10.7 µM
[6]
  Potency: inconclusive: 33.5 µM [cytotoxic, single point]
[7]
  Potency: active: 13.3 µM
[8]
  activation: inconclusive: -8.26% [phenotype inactive]
[9]
  Potency: inconclusive: 26.8 µM [cytotoxic, partial curve, poor fit]
[10]
  Potency: active: 23.9 µM
[11]
  Potency: inconclusive: 26.6 µM [inhibitor, partial curve]
[12]
  Potency: inconclusive: 26.6 µM [falling, partial curve]
[13]
  Potency: inconclusive: 26.6 µM [cytotoxic, partial curve]
[14]
  Potency: inconclusive: 15.8 µM [activator, partial curve]

## O=C(COc1ccc(Cl)cc1)OCCNC12CC3CC(CC(C3)C1)C2
[6]
  Potency: inconclusive: 23.7 µM [cytotoxic, partial curve]
[15]
  Potency: inconclusive: 33.5 µM [cytotoxic, partial curve, poor fit]
[16]
  Potency: inactive
[10]
  Potency: inactive
[14]
  Potency: inactive

## CC[C@@H](C)[C@@H](N)C1=N[C@H](C(=O)N[C@@H](CC(C)C)C(=O)N[C@@H](CCC(=O)O)C(=O)N[C@@H](C(=O)N[C@@H]2CCCCNC(=O)[C@@H](CC(N)=O)NC(=O)[C@@H](CC(=O)O)NC(=O)[C@@H](Cc3cnc[nH]3)NC(=O)[C@@H](Cc3ccccc3)NC(=O)[C@@H]([C@H](C)CC)NC(=O)[C@@H](CCCN)NC2=O)[C@@H](C)CC)CS1 (X3-LE[d(aIle)][dK][dOrn][dI][dF][dH][dD][dN]; lactam 4-C)
[2]; at 83.2 µM (top of the series)
  ratio activity, negative = MMP loss: inactive: -5.13%
[2]; [20]
  ratio activity, negative = MMP loss: inconclusive: 12.9% [at 39.1 µM]
[6]
  Potency: inactive
[17]
  Potency: inactive
[9]
  Potency: inactive
[13]
  Potency: inconclusive: 18.8 µM [cytotoxic, single point]
[14]
  Potency: inactive

## CC(CN1c2ccccc2Sc2cccnc21)N(C)C (stereo not given)
[1]
  Potency: inconclusive: 21.1 µM [activator, partial curve]
[2]; [20]
  ratio activity, negative = MMP loss: inconclusive: 27.5%
[4]
  Potency: inconclusive: 3.79 µM [activator, full curve, poor fit]
[15]
  Potency: inconclusive: 33.5 µM [cytotoxic, single point]
[7]
  Potency: inconclusive: 23.7 µM [cytotoxic, partial curve]
[9]
  Potency: inactive
[18]
  Potency: inactive
[19]
  Potency: inactive
[14]
  Potency: inconclusive: 17.8 µM [activator, partial curve, poor fit]

## C=C(NC(=O)C(=C)NC(=O)c1csc(C2=N[C@@H]3c4csc(n4)[C@H]4NC(=O)c5csc(n5)[C@H]([C@](C)(O)[C@@H](C)O)NC(=O)[C@H]5CSC(=N5)C(=CC)NC(=O)C([C@@H](C)O)NC(=O)c5csc(n5)[C@]3(CC2)NC(=O)[C@H](C)NC(=O)C(=C)NC(=O)[C@H](C)NC(=O)C([C@@H](C)CC)NC2C=Cc3c([C@H](C)O)cc(nc3C2O)C(=O)O[C@@H]4C)n1)C(N)=O (stereo not given in full)
[2]; [20]
  Potency: inconclusive: 0.227 µM [activator, full curve]
[3]
  activation: inconclusive: 2.74% [at 29.2 µM]
[4]
  Potency: inconclusive: 11.5 µM
[16]
  Potency: inconclusive: 0.0023 µM [cytotoxic, full curve, poor fit]
[17]
  Potency: inconclusive: 11.9 µM [cytotoxic, partial curve, poor fit]
[8]
  Potency: active: 5.69 µM
[9]
  Potency: inconclusive: 2.29 µM [activator]
[13]
  Potency: inconclusive: 10.1 µM [cytotoxic, partial curve, poor fit]
[19]
  Potency: inconclusive: 6.44 µM [activator, partial curve]
[14]
  Potency: inactive

## CNc1cc(OC)c(C(=O)N[C@H]2CCN(Cc3ccccc3)[C@H]2C)cc1Cl
[2]; [20]
  Potency: inconclusive: 11.9 µM [activator, single point]
[13]
  Potency: inconclusive: 23.7 µM [cytotoxic, partial curve, poor fit]
[14]
  Potency: inconclusive: 1.78 µM [activator, full curve, poor fit]

## CNC(=O)c1c(I)c(C(=O)NCC(=O)Nc2c(I)c(C(=O)O)c(I)c(C(=O)NCCO)c2I)c(I)c(N(C)C(C)=O)c1I
[6]
  Potency: inconclusive: 29.8 µM [rising, partial curve, poor fit]
[14]
  Potency: inconclusive: 31.6 µM [activator, single point]

## N#CC(c1ccc(Cl)cc1)c1c(Cl)cc(-n2ncc(=O)[nH]c2=O)cc1Cl (stereo not given)
[1]
  Potency: inconclusive: 21.1 µM [activator, partial curve]
[2]; [20]
  Potency: active: 8.41 µM
[4]
  Potency: active: 23.9 µM
[6]
  Potency: inconclusive: 33.5 µM [cytotoxic, single point]
[15]
  Potency: active: 29.8 µM
[7]
  Potency: inconclusive: 8.41 µM [cytotoxic, partial curve]
[8]
  activation: inconclusive: -7.38% [phenotype inactive]
[9]
  Potency: inconclusive: 8.49 µM [fluorescent, full curve]
[10]
  Potency: inconclusive: 16.9 µM [cytotoxic, partial curve]
[11]
  Potency: inactive
[12]
  Potency: inconclusive: 1.88 µM [rising, full curve, poor fit]
[19]
  Potency: inconclusive: 10.7 µM

## N[C@H](CC(=O)O)C(=O)O
[1]
  activation: inconclusive: 7.67%
[2]; [20]
  Potency: inactive
[3]
  Potency: inactive
[4]
  activity change, negative = inhibition: inconclusive: 18.1%
[6]
  Potency: inactive
[16]
  Potency: inactive
[9]
  activity, negative = inhibition: inconclusive: 19.7%
[19]
  activation: inconclusive: 8.88%
